Source: PubChem BioAssay AID463173 (ICCB-Longwood Screening Facility, Harvard Medical School, 2010)
In all, about 52,000 compounds went through this assay and about 4,300 (8.3%) were called active. Rule as the data show it: active = survival mostly below about 52% (no sharp cut-off); inactive = mostly above about 56%. Some of the results follow.

Each compound was assayed on DeltatarO mutant (assay: growth inhibition of S. aureus wild type versus tarO mutant, primary screen, teichoic acid synthesis inhibitors, RN4220, OD600 (AID 463173)). Settings: OD600, 18 h, active compounds read low, screened at 18.75 µg/mL (by protocol).
In the case of `COCCNC(=S)N1CCC(NC(=O)NC23CC4CC(CC(C4)C2)C3)CC1`, the survival is reported as inactive: 91%.
In the case of `CCOC(=O)c1cc2c(=O)n3ccccc3nc2n(Cc2ccco2)c1=NC(=O)c1ccc(C(C)(C)C)cc1`, the survival is reported as active: 36%.
`COc1cccc(OC)c1C(=O)Nc1ccc(-c2nc3ncccc3o2)cc1` was tested, and the survival was inactive: 92%.
In the case of `O=C(Nc1cccc(F)c1)c1ccc2oc(=O)n(Cc3ccccc3)c2c1`, the survival is reported as inactive: 70%.
For `CCOC(=O)c1c(NC(C)=O)c2c3c(sc2n1Cc1c(C)cc(C)cc1C)CCCC3`, the survival was inactive: 89%.
In the case of `COC(=O)c1cc(-c2cc(OC)c(OC)c(OC)c2)no1`, the survival is reported as inactive: 99%.
In the case of `CCOc1ccc(N(CC(=O)NCc2ccc(OC)cc2)S(=O)(=O)c2c(C)[nH]c(=O)[nH]c2=O)cc1`, the survival is reported as inactive: 86%.
`COc1cccc(C(=O)N(Cc2cccc(F)c2)C2CCS(=O)(=O)C2)c1` (stereo not given) was tested, and the survival was inactive: 74%.
`COc1ccc(Cn2ccnc2SCC(=O)Nc2ccc3c(c2)OCCO3)cc1` was tested, and the survival was inactive: 94%.
For `CC(C)(C)c1ccc(OCC(=O)Nc2ccc(C(=O)OC3CCCCC3)cc2)cc1`, the survival was inactive: 71%.
`COc1ccc(F)cc1S(=O)(=O)NCC(c1ccco1)S(=O)(=O)c1cccs1` (stereo not given) was tested, and the survival was inactive: 91%.
With `CC(C)Cn1nc(NC(=O)c2cccc(Cl)c2)c2cc3ccccc3nc21` the survival was inactive: 81%.
With `CCOC(=O)c1ccc(NC(=O)c2c(NCc3sccc3C)sc3c2CCC(C)C3)cc1` (stereo not given) the survival was inactive: 116%.
In the case of `NC(=O)c1nc(Nc2ccccc2)sc1NC(=O)c1c(F)cccc1F`, the survival is reported as inactive: 74%.
With `CN1CCN(C(CNC(=O)C(=O)Nc2ccc(Cl)cc2)c2cccnc2)CC1` (stereo not given) the survival was inactive: 86%.
`Cc1ccc(C)c(N2CCN(C(=O)CCc3nnc4n(C)c(=O)c5ccccc5n34)CC2)c1` was tested, and the survival was inactive: 95%.
In the case of `CCOC(=O)c1cccnc1SCC(=O)N(CC)c1cccc(C)c1`, the survival is reported as inactive: 101%.
For `O=C(CN(Cc1ccco1)C(=O)Cn1nnc(-c2cccs2)n1)NCc1ccccc1`, the survival was inactive: 94%.
For `Cc1ccc(Sc2ccc(N3CCCC(C(=O)Nc4ccc(F)c(Cl)c4)C3)nn2)cc1` (stereo not given), the survival was inactive: 68%.
With `CCOc1ccc(CNC(=O)c2ccc3c(c2)c(C)c(C)n3C)cc1` the survival was inactive: 85%.
`CCCN(CCC)C(=O)Cn1c(=O)n(-c2ccc(OC)cc2OC)c(=O)c2c3c(sc21)CCC3` was tested, and the survival was inactive: 86%.
For `CCCn1c2ccccc2c2cnn(CC(=O)NCC3CCN(Cc4ccc(C)cc4)CC3)c(=O)c21`, the survival was active: 17%.
For `COc1ccccc1Nc1nc(NCC2CCCO2)c2ccccc2n1` (stereo not given), the survival was inactive: 103%.
In the case of `CCOc1ccc(-n2c(SCc3ccccc3)nc3c([nH]c4ccccc43)c2=O)cc1`, the survival is reported as inactive: 71%.
In the case of `CCC(c1nnnn1CCOC)N1CCN(c2nc3ccccc3s2)CC1` (stereo not given), the survival is reported as inactive: 87%.
`CCCCOc1cccc(C(=O)Nc2sc3c(c2C(=O)OCC)CCCC3)c1` was tested, and the survival was inactive: 53%.
In the case of `Cc1ccc2nc3c(cc(C#N)c(=O)n3-c3nnc(SCc4ccc(F)cc4)s3)c(=O)n2c1`, the survival is reported as inactive: 72%.
`Cc1cccc2c(=O)cc(CSc3ccccc3NC(=O)C(C)C)[nH]c12` was tested, and the survival was inactive: 83%.
`COc1cccc(NC(=O)CSc2nc(=O)n(Cc3cccnc3)c3c2CCC3)c1` was tested, and the survival was inactive: 91%.
For `CCOC(=O)CCc1c(C)nc2c(-c3ccccc3)c(C)[nH]n2c1=O`, the survival was inactive: 87%.
With `CCOc1ccccc1CNC(=O)CSc1n[nH]c(-c2ccccc2)n1` the survival was inactive: 95%.
For `O=C(CSc1nnc(-c2ccncc2)n1-c1ccccc1)Nc1ccc(F)cc1`, the survival was inactive: 83%.
For `Cc1ccccc1OCCCC(=O)NCc1ccco1`, the survival was inactive: 90%.
For `Cc1cc(=O)n(Cc2cccc(Cl)c2)c2c1c(C)nn2C`, the survival was inactive: 102%.
With `COc1ccc(OC)c(C2C(C(=O)Nc3ccc(C)cc3C)=C(C)Nc3c(C(=O)Nc4ccc(F)cc4)cnn32)c1` (stereo not given) the survival was inactive: 96%.
For `CCn1c2c(c(=O)n3ncc(C(=O)N4CCN(c5ccccc5)CC4)c13)CN(Cc1ccc(OC)cc1)CC2`, the survival was inactive: 128%.
In the case of `Cc1cc(C(F)F)n2ncc(C(=O)O)c2n1`, the survival is reported as inactive: 91%.
With `Cc1ccc(NC(=O)Nc2nnc(SCC(=O)N3CCCCC3)s2)cc1` the survival was inactive: 83%.
For `CC(C)=C(C#N)c1nc2ccccc2s1`, the survival was inactive: 80%.
In the case of `COc1cccc(N2CC(NC(=O)c3cc4ccccc4o3)CC2=O)c1` (stereo not given), the survival is reported as inactive: 69%.
In the case of `Fc1ccc(-c2noc3ncnc(NCCc4ccc(Cl)cc4)c23)cc1`, the survival is reported as inactive: 62%.
For `COc1ccc(Nc2cc(C)c3cc(NC(=O)c4ccccc4Cl)ccc3n2)cc1`, the survival was inactive: 95%.
With `CC(C)c1ccc2c(c1)NC(c1ccc(F)cc1)=NC(c1cccs1)=N2` the survival was active: 45%.
For `Cc1nc2ncnn2c(C)c1CCC(=O)N1CCN(c2ccc(F)cc2)CC1`, the survival was inactive: 89%.
For `COc1cccc(CNC(=O)N2CCc3c(sc4c3CCCC4)C2c2ccc(F)cc2)c1` (stereo not given), the survival was inactive: 102%.
With `Cc1cc(C)c(C#N)c(N2CCN(c3cccc(C)c3C)CC2)n1` the survival was inactive: 106%.
`Cc1cccc(C(=O)NCCc2nc3ccccc3n2Cc2ccccc2Cl)c1` was tested, and the survival was inactive: 107%.
With `CCOC(=O)c1ccccc1NC(=O)c1cn(CC(C)C)c(=O)c2cc(OC)c(OC)cc12` the survival was inactive: 53%.
In the case of `O=C(CN1CCOCC1)NCC1COc2ccccc2O1` (stereo not given), the survival is reported as inactive: 95%.
`COc1ccc(OC)c(-c2noc(CSc3nnc(-c4ccccc4)n3-c3ccccc3)n2)c1` was tested, and the survival was inactive: 79%.
`Cc1ccc(-n2ncc3c(Nc4ccc(Oc5ccccc5)cc4)ncnc32)c(C)c1` was tested, and the survival was inactive: 95%.
For `COc1ccc(N2CCN(S(=O)(=O)c3ccc(C4CCCCC4)cc3)CC2)cc1`, the survival was inactive: 79%.
For `Cc1ccc(OCC(=O)Nc2nnc(S(=O)(=O)N3CCc4ccccc43)s2)cc1`, the survival was active: 13%.
`COc1ccc(Cl)cc1NC(=O)CSc1nc(=O)n(Cc2ccco2)c2c1CCC2` was tested, and the survival was inactive: 94%.
In the case of `COC(=O)C1=C(CS(=O)(=O)c2ccc(C)cc2C)NC(=O)NC1c1ccc(C)cc1` (stereo not given), the survival is reported as inactive: 77%.
For `COc1ccc2c(C)c(CCC(=O)NCCc3ccccc3)c(=O)oc2c1`, the survival was inactive: 55%.
In the case of `Cc1cc(C)c(S(=O)(=O)NCc2ccc3c(c2)CCN3C(=O)c2ccccc2)c(C)c1`, the survival is reported as inactive: 94%.
With `Cc1ccc(C(=O)CSc2nnc(CSc3nc(C)cc(C)n3)n2C)cc1` the survival was inactive: 88%.
`CCCCN(C)CCNC(=O)c1nn(-c2ccc(OC)c(Cl)c2)c(=O)c2c1c1ccccc1n2C` was tested, and the survival was inactive: 99%.
For `Cc1nn(-c2ccccc2)c2sc(C(=O)Nc3ccc(Cl)cc3Cl)cc12`, the survival was inactive: 71%.
`Cc1cccc(N2CCN(C(c3ccccc3F)c3nnnn3C(C)C)CC2)c1C` (stereo not given) was tested, and the survival was inactive: 92%.
For `CC(C)Cc1nc2ccc(N)cc2[nH]1`, the survival was inactive: 81%.
In the case of `COc1ccc(CNC(=O)Cn2c(=O)c3cccn3c3cccnc32)cc1`, the survival is reported as inactive: 102%.
`Cc1cccn2c(=O)c(C(=O)N3CCN(c4ccccc4F)CC3)cnc12` was tested, and the survival was inactive: 112%.
For `COc1ccc(C(=O)Nc2nnc(SCc3cc(=O)c4cc(C)ccc4[nH]3)s2)cc1OC`, the survival was inactive: 89%.
In the case of `CCC(Oc1ccccc1F)C(=O)Nc1cc(-c2ccccc2)no1` (stereo not given), the survival is reported as active: 35%.
`COc1ccccc1C(c1c(O)cc(C)n(Cc2ccco2)c1=O)N1CCCCC1` (stereo not given) was tested, and the survival was inactive: 91%.
In the case of `Cc1ccc(NCC(O)CN)c(Br)c1` (stereo not given), the survival is reported as inactive: 100%.
For `Cc1cccc(N2CCN(S(=O)(=O)c3cc(C(=O)Nc4ccc(Oc5ccccc5)cc4)ccc3F)CC2C)c1` (stereo not given), the survival was inactive: 88%.
For `COc1ccc(C(=O)NCCn2cc(SCC(=O)Nc3ccc4c(c3)OCCO4)c3ccccc32)cc1`, the survival was inactive: 153%.
For `N#C/C(=C(/O)CCCN1C(=O)c2ccccc2C1=O)c1nc2ccccc2[nH]1`, the survival was inactive: 95%.
`COC(=O)c1ccc(NC(=O)c2c(NCc3cccc(F)c3)sc3c2CCCC3)cc1` was tested, and the survival was inactive: 78%.
With `Cc1cc2c(cc1S(=O)(=O)N(CCN(C)C)Cc1ccccc1)OCC(=O)N2` the survival was inactive: 102%.
`COc1ccc(-c2noc(CNC(=O)c3cc(OC)c(OC)c(OC)c3)n2)cc1` was tested, and the survival was inactive: 55%.
In the case of `CC1CCc2onc(C(=O)Nc3ccc(Cl)cc3)c2C1` (stereo not given), the survival is reported as inactive: 75%.
With `Cc1[nH]c2ccc(C(=O)NCCCN3CCCCC3)cc2c1C` the survival was inactive: 105%.
For `CCCN(c1ccccc1F)S(=O)(=O)c1ccc2c(c1)C(C)(C)C(=O)N2C`, the survival was inactive: 79%.
With `CC(=O)N1CCC(N(Cc2ccc(C)o2)C(=O)Nc2ccccc2F)CC1` the survival was inactive: 89%.
In the case of `Cc1nc2c(c(C)c1CCC(=O)NCc1ccc(F)cc1)c(=O)n(C)c(=O)n2C`, the survival is reported as inactive: 95%.
For `CCOc1ccccc1NC(=O)CSc1c2c(nc3ccc(Cl)cc13)CCCC2`, the survival was active: 45%.
`COc1ccc(S(=O)(=O)N(CC(=O)NCCSc2ccc(C)cc2)c2ccc(C)cc2)cc1` was tested, and the survival was inactive: 127%.
In the case of `CCc1c(-c2ccccc2)nc2ccccc2c1C(=O)NC(C)c1ccccc1` (stereo not given), the survival is reported as inactive: 63%.
For `CCOC(=O)C1CCCN(S(=O)(=O)c2cc(-c3onc(C)c3C)ccc2OC)C1` (stereo not given), the survival was inactive: 83%.
For `CCOc1ccccc1NC(=O)c1nc(S(=O)(=O)Cc2cccc(C)c2)ncc1Cl`, the survival was inactive: 66%.
For `Cc1ccc(-c2nc(S(=O)(=O)c3ccc(F)cc3)c(N3CCN(c4ccccc4)CC3)o2)cc1`, the survival was inactive: 72%.
For `CC(C)C[C@H](N)c1nnc(SCc2ccc(Cl)cc2Cl)o1`, the survival was active: 38%.
`C/C(=N\NC(=O)COc1ccccc1)C1C(=O)c2ccccc2C1=O` was tested, and the survival was inactive: 80%.
`Cc1ccccc1Nc1nn2c(=O)c3ccc(C(=O)NCC(C)c4ccccc4)cc3nc2s1` (stereo not given) was tested, and the survival was inactive: 66%.
In the case of `CC1=C(c2ccc(C(C)C)cc2)S(=O)(=O)N=C1N1CCN(c2ccccc2F)CC1`, the survival is reported as inactive: 85%.
For `CCOc1ccccc1NC(=O)Cn1nnc(C(=O)NCc2cccs2)c1N`, the survival was inactive: 94%.
